According to publication PMC4976356, “Structural insight into β-Clamp and its interaction with DNA Ligase in Helicobacter pylori” (Scientific Reports, 2016):

Molecular target: Hpβ-clamp (Helicobacter pylori, UniProt O25242)
Assay: SPR interaction with immobilized Hpβ-clamp (Autolab SPR)
Conditions: peptide 100 μM to 1.7 mM, 10 mM HEPES pH 7.4, 150 mM NaCl, 3 mM EDTA, 0.05% NP-40, 25 °C

## 953QGGNSLF959 [peptide from alpha]
  binding affinity range (in words), peptide from alpha subunit of DNA Pol III: millimolar range
